Target: T1, human CD137 ligand expressed on DO11.10 cells (human, UniProt P41273)
T1 construct: whole, on cells
Experiment: flow cytometry

T1 sequence (P41273 whole entry): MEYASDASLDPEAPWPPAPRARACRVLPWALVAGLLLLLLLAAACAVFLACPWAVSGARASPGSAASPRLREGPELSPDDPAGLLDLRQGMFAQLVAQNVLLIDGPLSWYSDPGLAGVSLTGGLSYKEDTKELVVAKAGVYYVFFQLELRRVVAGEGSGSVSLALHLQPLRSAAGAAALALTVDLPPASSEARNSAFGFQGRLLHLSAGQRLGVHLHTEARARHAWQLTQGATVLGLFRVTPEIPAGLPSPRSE

binding result	Binder
binds	hCD137-Avi-His (receptor, Monomer; also called human CD137-Avi-His) not shown
binds	hCD137-mFc-Avi (Fc fusion, Dimer; a biotinylated version was used where the text says so; also called human CD137-mFc-Avi; hCD137-mFc-Avi-Bio) not shown

From patent US20220048996A1 (F STAR BETA, published 2022)
